# Whole data set: some 1,800 sequences, median “median log2 fold change of GCK-ALFA target abundance (FLAG IP / Myc IP barcode read proportion)” near 0.14, cut for the lowest 2% near -0.84. Some of the results follow.
# T1: TRAF2, Q12933
# T1 chain: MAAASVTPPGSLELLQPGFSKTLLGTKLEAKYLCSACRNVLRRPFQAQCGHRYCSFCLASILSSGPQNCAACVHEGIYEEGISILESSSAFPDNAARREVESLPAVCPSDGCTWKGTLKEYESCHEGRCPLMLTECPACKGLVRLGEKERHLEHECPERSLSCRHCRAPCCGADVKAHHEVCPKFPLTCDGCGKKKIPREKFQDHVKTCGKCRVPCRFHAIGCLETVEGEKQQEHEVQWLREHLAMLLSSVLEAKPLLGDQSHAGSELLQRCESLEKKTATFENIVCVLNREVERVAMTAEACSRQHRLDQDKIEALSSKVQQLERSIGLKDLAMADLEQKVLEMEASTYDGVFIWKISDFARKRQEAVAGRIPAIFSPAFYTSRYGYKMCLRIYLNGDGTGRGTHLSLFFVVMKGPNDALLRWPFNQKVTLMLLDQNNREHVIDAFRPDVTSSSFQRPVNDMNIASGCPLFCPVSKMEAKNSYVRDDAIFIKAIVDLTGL
# B1: traf2_out_17_162_1571 (protein)
# chain: AELEKELEELKKRLEELEKKLEEFKKKLPELPKMSKEELTDLLVEVSELKREARELAERLAELGAKLGSEELEKLVKRAEEIAEELQRIANEIYKEIEKK
# B2: traf2_out_11_155_733 (protein)
# chain: EAKKKAQREINDFALEVGDELEAYVKEIIKEVEKEDPEAAKELREIFEKHLKFSKRSAARAVAEKLKELGYEEKAKELEEKIEEAQKKISDFVNEVEKKL
# B3: traf2_out_13_95_1188 (protein)
# chain: EEEKRKKYKEKTNEIADELLDHADALIARIEAATGDPALGAELRRVLNRGGVSALIHFIREQAAKDPAHRALFEAAAADLEAKRREAGKKVAEAEKEIEE
# B4: traf2_out_17_162_1475 (protein)
# chain: MSLEERWEELLRRLEELERLREELEKKLENIENMSKEELTDLLVEASEARREARRLAEEFRSLAPEIGEERAAEYAARALEIAERLQRIANKIYKELEKK
# B5: traf2_out_1_158_915 (protein)
# chain: DTKKNLILAVVRLVGDDAIESAREAGDEETAKALEEFVKEVEEAVRKLLIEENKSVEEVIEEIKKIEEERKKKVNPETAKAIERLGRQIISGIKQVDKLM
# B6: traf2_out_8_15_2548 (protein)
# chain: SIKEAAEKDIARLKALSDGDKESLINTLLGMAKGELRLAKIYKEEGRKEEALRTLEYARIYAEAALELAKEIGSPRLEEIKKEVEELEKEIEELRKEIEA
# B7: traf2_out_18_117_1773 (protein)
# chain: SAREEVIARLEALAEEVDRAASRLGKAVLEHWDELTPEQKSAAMDVLADLSAVRREALLLIHRIREEGLPLEEAEARAEALAARAKAALAAAEARLKAIA
# B8: traf2_out_20_3_2084 (protein)
# chain: KELEEEYKKHLEKAEKLLKEAAKLADPETAKKLEELIKRLKKSEELPYSDRLVVLSEVRREVLLLAQEAKAAGNEELAKILEEAAEEINRAMNLLMKMIE
# B9: traf2_out_15_180_1319 (protein)
# chain: MTEEELKKRIELANEVADKVQDKLKELLAKNPSLSEEEKKALKELARSLTTLLMNGEEEEAAAVLEEAKAKLSPEAAKIADELYEFIKKEVKEAKEKLKK
# B10: traf2_out_20_3_2261 (protein)
# chain: EELREKAKKALEEAEKLLKELEPLLPPEEAAELKELLKKAKEAFEKDLKDALVYLSELRRLLLRLSERARAAGDEELAALLEEAADAVNRAANYIYKIIE
# B11: traf2_out_5_63_2343 (protein)
# chain: SEREELTELARRADRLVREMLEAARAGDEERVERLLEEAVADPELARLVLGILRAEARAYELDGEREEEAEIARRLRERLEERLAAREAERAAAAAAAAA
# B12: traf2_out_6_166_2465 (protein)
# chain: MEETLAEIRRIAERLGEYEPEIVIEAFERVAAELTDERALLARQLASGVRQGQKAGIDTRTIVTAMADGWLALGVPPEDILELLRRVLEEAERLAAEREA
# B13: traf2_out_11_169_890 (protein)
# chain: EEEEKNRKIIEHALELNDKAKEELKKYALKLAKEAGLDEKEVEKIFEENKGKSLSYVASKLIEWFKSKGAEEAAKAVLEKYDELKEKINKESTKFIKELE
# B14: traf2_out_18_167_1844 (protein)
# chain: EEEIEERRRELSDRLVDLSAVRREALRALQALDTDPSAVPAELAALRAEAARVPELQPLVDAAEAALEAGDRAALRAELERLIAEAGRLMQEAYKELEAL
# B15: traf2_out_18_3_1897 (protein)
# chain: KEAELKEISEKIDEIIDEVTAKAREVLDWIAANHPEVKERVDALRADLDAGAGPFGILEALAELLKEAGDEEKAKEVEDFLKEKKKELQELVDKYEELRA
# B16: traf2_out_5_189_2326 (protein)
# chain: SEKEKEDEELRKKAKELSEEARKLLKEAKEKGLSYEEIEEKFLEYAKTLSLEDAQLFMGIMYSILKGEALANNDEELLKFAENYRKRSKELIEKRRKELA
# B17: traf2_out_20_3_2197 (protein)
# chain: SPLEEELKKELEKAIKLLKEAAKLADPETAKKLEELIKKIKESESLSISDQLVVLSEVRREVLLLAEEAKKEGKEELAKVLEKAAEELNKAMNLLMKMLE
# B18: traf2_out_1_156_897 (protein)
# chain: MTDEEKQAAIHERLKNPEYRRAFVDAALTRRDLRERAEELRKEGGDEEVIKRLEEKAEEIHKAMNEFLSSEPEELEKKLEELKEKIKEGKEALKEAEKER
# B19: traf2_out_15_48_1355 (protein)
# chain: STAALRATAREVNDRIEATQAAVAARLRALLPKLPPENRPLAQAAIDLAGNNGSISDVIALLDELAKKVSPELRAELTALRDELLATRREGSRLINETLA
# B20: traf2_out_17_178_1706 (protein)
# chain: TKEEARKRISEATDRMIDLAEEAAARLLEIAEREGSLSPEELAELRRARRLGSARTTLALMDRAIPKSRSAAEVTALRDRFEAEYARLAKEIAEALKKYE
# B21: traf2_out_5_63_2340 (protein)
# chain: SEREELTELAREADRLVREMLEAAKAGDEERVDALLDEAVADPELARLVIGILKAEERAYRLSGDREEDAEIARELRDRLEARAAAREAAAAAAAAAAAA
# B22: traf2_out_8_15_2555 (protein)
# chain: SVEENAKKLVEKLEAASDGDKNTLANLLIGEIKAHVRLAEILLEEGKIEEALNTIKYTRAYIKEALKRAEELGLPKLEELKKAAEEAEKRLEEIEKRIKE
# B23: traf2_out_20_3_2116 (protein)
# chain: EELEKELEKELEKALKLLEEAAKLADKETAKKLKELAERLEKSKSLSYSDRLVVVSEIRREVLKLRQEAEAKGDEKLAKVLEKAAEELNRAAGLLMKIIE
# B24: traf2_out_13_169_1028 (protein)
# chain: EEIRKETEELLKKSLERYLKEIEKKIKELKKKGTELYKEIAKVAEEILELIKELYKKGELYEATGFARRLLSILELAETDPEKALKLLKELLEEAKKELK
# B25: traf2_out_11_155_677 (protein)
# chain: EKKREINNALVDEMAAIDDATRAALDAIVDAAAAAHPEHAAALRAARDATRPYPGSSRGRALAALFRELGLEDYAAQVEALLAAAQKEKNAALKAHEAKL
# B26: traf2_out_20_38_2038 (protein)
# chain: SEEEEEEERLERLVEVANAALDRYEARIAALQAEGKSVAEIAEWAKEEIRRILGEAGLEEEAEELIAQVRTVENRPDALRLIARILARAEALAYQKELQK
# B27: traf2_out_12_187_963 (protein)
# chain: SVEEELLKAAKAGVKRAIKELEKAAPKDERFKKLLEKLKELEKLYEKDPSIASDLLVASSAILRAVRLFEEGLPEEEIEKAIEEAEKILEEAIKEAKKLE
# B28: traf2_out_18_167_1870 (protein)
# chain: SEELDKKYEELTDKLVEKSTIRRHLLEILELLKESEEKAREALKKAVEEYPDSEVLKEALEVFETKSLEEFRAFLESKAEELQKEANKYYKELEELEKEK
# B29: traf2_out_6_166_2469 (protein)
# chain: DEELLKRVREIVEELGKYEPEIVIEAFERLAERRSDRRALMARQLASGVRQGQKAGLDVATIISAFVDGLIALGVPIEEILELLEEVLEIARELAAERAR
# Target: T1, TRAF2, Q12933
# Assay: median log2 fold change of GCK-ALFA target abundance (FLAG IP / Myc IP barcode read proportion) (log2 ratio); each designed protein is fused to an ALFA-tag nanobody in HEK293 cells to bring the named protein to FLAG-tagged glucokinase (GCK); Myc marks an untargeted standard; higher = target protein stabilised (more abundant)
# Details: target protein: 3xFLAG-MCP-GCK-ALFA reporter; HEK293 landing pad (RPLP)
# Method in brief: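 An ALFA-nanobody-fused binder library was recombined into HEK293 landing-pad cells and induced with 2 μg mL^−1 doxycycline. Cells were transfected with a plasmid expressing a FLAG-tagged target and a Myc-tagged standard. After 48 h, lysates underwent anti-FLAG and anti-Myc immunoprecipitation, and circular RNA barcodes were reverse transcribed, amplified and sequenced. Target abundance is the per-binder median log2 ratio of FLAG to Myc barcode read proportions. Barcodes needed ≥10^−7 proportion in both replicates, binders ≥3 barcodes per replicate, and a 10^−6 pseudocount was added; the two replicates were pooled.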
row,Binder,median log2 fold change
1,B1,0.207
2,B2,0.199
3,B3,-0.0372
4,B4,0.0618
5,B5,-0.106
6,B6,0.203
7,B7,0.0262
8,B8,0.118
9,B9,0.315
10,B10,0.304
11,B11,-0.159
12,B12,0.248
13,B13,0.15
14,B14,0.223
15,B15,0.44
16,B16,0.318
17,B17,0.133
18,B18,-0.051
19,B19,0.179
20,B20,-0.21
21,B21,-0.0288
22,B22,0.147
23,B23,0.229
24,B24,-0.0793
25,B25,-0.00384
26,B26,-1.39
27,B27,0.0785
28,B28,0.185
29,B29,-0.165
